The values below come from the supplement of paper PMC8728848.

Assay [1] addresses Neu5Gc(a2-8)Neu5Gc(a2-6)Gal(b1-4)GlcNAc. The assay is described as follows: glycan array binding signal (z-score within array); higher = stronger binding. As to conditions: glycan notation: IUPAC condensed, linker removed. In outline: (§1)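 Negative Z-scores can be read as non-binding. The Z-score is calculated within each array and then averaged across arrays of one protein sequence at different concentrations or buffers and across linkers. Arrays, 3228 in all, were curated from the Consortium for Functional Glycomics database and kept only where the protein sequence was available.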

Assay [2] deals with Neu5Gc(b2-6)Gal(b1-4)GlcNAc. The assay is described as above. As to conditions: glycan notation: IUPAC condensed, linker removed. In outline:
as §1

Some of the results follow.

B1: GS7807P-bth-537-23-537 (Bacteroides thetaiotaomicron) (protein)
chain: NYENINSNPYEAPDLSADGYALGSAMNNLAGCVVSPDVNTAQFTDCLLGGPLGGYFADSNAGFTETISNFNPKDDWSRVFLKSDKIIPTLYSNLTQVKLVSQNTNDPVPYAIAQVIKVAAMHRVTDAFGPIPYSQIGANGEIATPYDSQEVTYNTFFDELNAAIATLNENSNEQLVPTADYIYKGDVKKWIRFANSLKLRLAIRIAYANPVKAQQMAEEAVNPANGGVIESNADNATWNYFETSQNPIYVATRYNQVQTSDHGGVPCLTGGDTHAAADIICYMNGYKDNRREKFFTKSEWAGQDYVGMRRGIVIPELKTTGHKYSGVNIAPTSPLYWMNAAEVAFLRAEGQAVFNFSMGGTAESFYNQGIRLSFEQWGADGVEDYLKDDVNKPTAYTDPAGTNTYQNALSNITIKWNDSADKEEKQERIIVQKWIANWQLGNEAWADFRRTGYPKLIPVKENKSGGVVDSEKGARRMPYPLDEFVSNKANVEYAIANYLHGADNMATDVWWASKK
As to B1, the “glycan array binding signal (z-score)” value is -0.365 in assay [1] and 0.897 in assay [2].
